Data from the supplement of paper PMC10369915.
Some of the results follow. Cut-off read from the data, not from the text of the source: active = 3.2 or more and inactive = the rest. The signal is at background level for most entries.

target: SHP2 C-SH2 domain E139D; experiment: enrichment score (SH2-bound / input frequency) (ratio); bacterial display of known human phosphotyrosine sites (pTyr-Var adds point mutants) read by sequencing; higher = stronger binding; tyrosines were phosphorylated by kinases first; details: peptide library: pTyr-Var
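Note: displayed peptides selected on beads carrying the immobilized SH2 domain, with library peptides lacking any tyrosine serving as negative controls.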

Binder	enrichment score
CTTILYNYMCN [TP53_Y234_H233L]	active: 3.67
CTTILYNFMCN [TP53_Y234_H233L_YF]	active: 3.66
CTTIQYNFMCN [TP53_Y234_H233Q_YF]	active: 4.25
CTTIRYNFMCN [TP53_Y234_H233R_YF]	active: 3.57
CTTFHYNYMCN [TP53_Y234_I232F]	active: 3.54
CTTSHYNFMCN [TP53_Y234_I232S_YF]	inactive: 2.62
CTTVHYNYMCN [TP53_Y234_I232V]	active: 4.11
CTTVHYNFMCN [TP53_Y234_I232V_YF]	inactive: 3.08
CTTIHYNYICN [TP53_Y234_M237I]	active: 5.92
CTTIHYNYKCN [TP53_Y234_M237K]	inactive: 3.04
CTTIHYNFKCN [TP53_Y234_M237K_YF]	inactive: 2.8
CTTIHYNFLCN [TP53_Y234_M237L_YF]	active: 3.93
CTTIHYNYTCN [TP53_Y234_M237T]	inactive: 3.08
CTTIHYNFTCN [TP53_Y234_M237T_YF]	active: 4.18
CTTIHYMYMCN [TP53_Y234_N235M]	inactive: 2.67
CTTIHYTFMCN [TP53_Y234_N235T_YF]	active: 4.12
CTTIHYYYMCN [TP53_Y234_N235Y]	active: 4.55
CTTIHYNFMCD [TP53_Y234_N239D_YF]	active: 4.14
CTTIHYNYMCI [TP53_Y234_N239I]	active: 4.6
CTTIHYNYMCT [TP53_Y234_N239T]	active: 4.69

target: SHP2 C-SH2 domain wild-type; experiment: as above; details: peptide library: pTyr-Var

Binder	enrichment score
CTTILYNYMCN [TP53_Y234_H233L]	active: 3.39
CTTILYNFMCN [TP53_Y234_H233L_YF]	inactive: 2.92
CTTIQYNFMCN [TP53_Y234_H233Q_YF]	active: 3.31
CTTIRYNFMCN [TP53_Y234_H233R_YF]	active: 3.59
CTTFHYNYMCN [TP53_Y234_I232F]	active: 4.53
CTTSHYNFMCN [TP53_Y234_I232S_YF]	inactive: 2.44
CTTVHYNYMCN [TP53_Y234_I232V]	active: 6.33
CTTVHYNFMCN [TP53_Y234_I232V_YF]	inactive: 2.69
CTTIHYNYICN [TP53_Y234_M237I]	active: 5.69
CTTIHYNYKCN [TP53_Y234_M237K]	inactive: 2.75
CTTIHYNFKCN [TP53_Y234_M237K_YF]	inactive: 2.26
CTTIHYNFLCN [TP53_Y234_M237L_YF]	active: 3.61
CTTIHYNYTCN [TP53_Y234_M237T]	active: 3.86
CTTIHYNFTCN [TP53_Y234_M237T_YF]	active: 4.19
CTTIHYMYMCN [TP53_Y234_N235M]	inactive: 3.06
CTTIHYTFMCN [TP53_Y234_N235T_YF]	active: 3.64
CTTIHYYYMCN [TP53_Y234_N235Y]	active: 3.86
CTTIHYNFMCD [TP53_Y234_N239D_YF]	active: 3.74
CTTIHYNYMCI [TP53_Y234_N239I]	active: 4.86
CTTIHYNYMCT [TP53_Y234_N239T]	active: 5.27

target: SHP2 N-SH2 domain L43F; experiment: as above; details: peptide library: pTyr-Var

Binder	enrichment score
CTTILYNYMCN [TP53_Y234_H233L]	active: 3.49
CTTILYNFMCN [TP53_Y234_H233L_YF]	active: 3.32
CTTIQYNFMCN [TP53_Y234_H233Q_YF]	active: 3.69
CTTIRYNFMCN [TP53_Y234_H233R_YF]	active: 3.55
CTTFHYNYMCN [TP53_Y234_I232F]	inactive: 2.78
CTTSHYNFMCN [TP53_Y234_I232S_YF]	inactive: 2.32
CTTVHYNYMCN [TP53_Y234_I232V]	active: 3.29
CTTVHYNFMCN [TP53_Y234_I232V_YF]	inactive: 3.12
CTTIHYNYICN [TP53_Y234_M237I]	active: 3.74
CTTIHYNYKCN [TP53_Y234_M237K]	inactive: 3.17
CTTIHYNFKCN [TP53_Y234_M237K_YF]	inactive: 2.73
CTTIHYNFLCN [TP53_Y234_M237L_YF]	active: 3.71
CTTIHYNYTCN [TP53_Y234_M237T]	inactive: 2.95
CTTIHYNFTCN [TP53_Y234_M237T_YF]	active: 4.19
CTTIHYMYMCN [TP53_Y234_N235M]	inactive: 2.31
CTTIHYTFMCN [TP53_Y234_N235T_YF]	active: 3.48
CTTIHYYYMCN [TP53_Y234_N235Y]	active: 3.39
CTTIHYNFMCD [TP53_Y234_N239D_YF]	active: 3.89
CTTIHYNYMCI [TP53_Y234_N239I]	active: 3.69
CTTIHYNYMCT [TP53_Y234_N239T]	active: 3.44

target: SHP2 N-SH2 domain T42A; experiment: as above; details: peptide library: pTyr-Var

Binder	enrichment score
CTTILYNYMCN [TP53_Y234_H233L]	inactive: 2.6
CTTILYNFMCN [TP53_Y234_H233L_YF]	inactive: 2.21
CTTIQYNFMCN [TP53_Y234_H233Q_YF]	inactive: 2.83
CTTIRYNFMCN [TP53_Y234_H233R_YF]	inactive: 2.53
CTTFHYNYMCN [TP53_Y234_I232F]	inactive: 2.74
CTTSHYNFMCN [TP53_Y234_I232S_YF]	inactive: 2.3
CTTVHYNYMCN [TP53_Y234_I232V]	inactive: 3.17
CTTVHYNFMCN [TP53_Y234_I232V_YF]	inactive: 2.59
CTTIHYNYICN [TP53_Y234_M237I]	active: 3.21
CTTIHYNYKCN [TP53_Y234_M237K]	inactive: 2.07
CTTIHYNFKCN [TP53_Y234_M237K_YF]	inactive: 2.13
CTTIHYNFLCN [TP53_Y234_M237L_YF]	inactive: 2.87
CTTIHYNYTCN [TP53_Y234_M237T]	inactive: 2.54
CTTIHYNFTCN [TP53_Y234_M237T_YF]	inactive: 3.13
CTTIHYMYMCN [TP53_Y234_N235M]	inactive: 2.24
CTTIHYTFMCN [TP53_Y234_N235T_YF]	inactive: 2.75
CTTIHYYYMCN [TP53_Y234_N235Y]	inactive: 2.73
CTTIHYNFMCD [TP53_Y234_N239D_YF]	active: 3.21
CTTIHYNYMCI [TP53_Y234_N239I]	active: 3.42
CTTIHYNYMCT [TP53_Y234_N239T]	inactive: 3

target: SHP2 N-SH2 domain T52S; experiment: as above; details: peptide library: pTyr-Var

Binder	enrichment score
CTTILYNYMCN [TP53_Y234_H233L]	active: 3.24
CTTILYNFMCN [TP53_Y234_H233L_YF]	inactive: 3.08
CTTIQYNFMCN [TP53_Y234_H233Q_YF]	active: 3.3
CTTIRYNFMCN [TP53_Y234_H233R_YF]	inactive: 3.18
CTTFHYNYMCN [TP53_Y234_I232F]	inactive: 3.08
CTTSHYNFMCN [TP53_Y234_I232S_YF]	inactive: 2.36
CTTVHYNYMCN [TP53_Y234_I232V]	active: 3.26
CTTVHYNFMCN [TP53_Y234_I232V_YF]	inactive: 2.97
CTTIHYNYICN [TP53_Y234_M237I]	active: 3.4
CTTIHYNYKCN [TP53_Y234_M237K]	inactive: 2.75
CTTIHYNFKCN [TP53_Y234_M237K_YF]	inactive: 2.4
CTTIHYNFLCN [TP53_Y234_M237L_YF]	inactive: 3.14
CTTIHYNYTCN [TP53_Y234_M237T]	inactive: 2.92
CTTIHYNFTCN [TP53_Y234_M237T_YF]	active: 3.36
CTTIHYMYMCN [TP53_Y234_N235M]	inactive: 2.27
CTTIHYTFMCN [TP53_Y234_N235T_YF]	active: 3.49
CTTIHYYYMCN [TP53_Y234_N235Y]	inactive: 3.02
CTTIHYNFMCD [TP53_Y234_N239D_YF]	inactive: 3.11
CTTIHYNYMCI [TP53_Y234_N239I]	active: 3.64
CTTIHYNYMCT [TP53_Y234_N239T]	active: 3.6

target: SHP2 N-SH2 domain wild-type; experiment: as above; details: peptide library: pTyr-Var

Binder	enrichment score
CTTILYNYMCN [TP53_Y234_H233L]	inactive: 3.13
CTTILYNFMCN [TP53_Y234_H233L_YF]	inactive: 2.92
CTTIQYNFMCN [TP53_Y234_H233Q_YF]	active: 3.34
CTTIRYNFMCN [TP53_Y234_H233R_YF]	active: 3.2
CTTFHYNYMCN [TP53_Y234_I232F]	inactive: 2.88
CTTSHYNFMCN [TP53_Y234_I232S_YF]	inactive: 2.13
CTTVHYNYMCN [TP53_Y234_I232V]	inactive: 2.67
CTTVHYNFMCN [TP53_Y234_I232V_YF]	inactive: 2.9
CTTIHYNYICN [TP53_Y234_M237I]	inactive: 2.99
CTTIHYNYKCN [TP53_Y234_M237K]	inactive: 2.21
CTTIHYNFKCN [TP53_Y234_M237K_YF]	inactive: 2.35
CTTIHYNFLCN [TP53_Y234_M237L_YF]	inactive: 2.92
CTTIHYNYTCN [TP53_Y234_M237T]	inactive: 2.81
CTTIHYNFTCN [TP53_Y234_M237T_YF]	active: 3.34
CTTIHYMYMCN [TP53_Y234_N235M]	inactive: 2.33
CTTIHYTFMCN [TP53_Y234_N235T_YF]	active: 3.82
CTTIHYYYMCN [TP53_Y234_N235Y]	active: 4.14
CTTIHYNFMCD [TP53_Y234_N239D_YF]	inactive: 3.04
CTTIHYNYMCI [TP53_Y234_N239I]	active: 3.93
CTTIHYNYMCT [TP53_Y234_N239T]	active: 3.22
